Results reported in patent publication US9045531B2, “HLA-binding peptide, precursor thereof, and DNA fragment and recombinant vector coding for said HLA-binding peptide” (NEC CORPORATION, priority 2006, dated 2015).
No end group written: not given here.

How the values were obtained:
[1] = target: HLA-A2 molecule (product of the HLA-A*0201 gene) (Homo sapiens, UniProt P04439, D140Y/D185E/D98H/E176V/E277Q/G131W/G231S/I119V/I121R/I166T/I218V/L300P/L318F/N151K/N90K/P208A/P217A/Q86G/Q94H/R138H/R169H/T345S); experiment: Experiment of binding peptide to HLA-A0201 molecule (JY cells, flow cytometry)
[2] = target: HLA-A2 molecule (product of the HLA-A*0206 gene) (Homo sapiens, UniProt P04439, D140Y/D185E/D98H/E176V/E277Q/F33Y/G131W/G231S/I119V/I121R/I166T/I218V/L300P/L318F/N151K/N90K/P208A/P217A/Q86G/Q94H/R138H/R169H/T345S); experiment: cell-based

Row | Sequence | Kd [1] [µM] | Kd [2] [µM]
1 | AQRAMMDQV [SEQ ID NO: 34] | 4.63 | 
2 | WMACHSAAF [SEQ ID NO: 30] | 1.62 | 
3 | YLEEHPSAG [SEQ ID NO: 21] | 8.23 | 
4 | SALILRGSV [SEQ ID NO: 37] |  | 145
5 | SLPFERATI [SEQ ID NO: 22] | 5.71 | 
6 | LILYDKEEI [SEQ ID NO: 51] |  | 4.15
7 | RLIQNSITI [SEQ ID NO: 45] |  | 37.6
8 | FRLLQNSQV [SEQ ID NO: 47] |  | 61.2
9 | LQNSQVFSL [SEQ ID NO: 49] |  | 1.65
10 | LIFLARSAL [SEQ ID NO: 52, LIFLARSAL] |  | 186
11 | FQGRGVFEL [SEQ ID NO: 48] |  | 0.168
12 | YLEENPSAG [SEQ ID NO: 26] | 12.5 | 
13 | AQRAMMDQV [SEQ ID NO: 40] |  | 2.27
14 | IFLARSALI [SEQ ID NO: 35] | 1.15 | 
15 | FRLLQNSQV [SEQ ID NO: 24] | 35.1 | 
